This note sets out measurements from publication PMC7819943, “Rice protein-binding microarrays: a tool to detect cis-acting elements near promoter regions in rice”.

This is one part of the list.

This assay has as its target T1, OsWOX13 (Oryza sativa, UniProt Q5QMM3 1-267).
T1 sequence: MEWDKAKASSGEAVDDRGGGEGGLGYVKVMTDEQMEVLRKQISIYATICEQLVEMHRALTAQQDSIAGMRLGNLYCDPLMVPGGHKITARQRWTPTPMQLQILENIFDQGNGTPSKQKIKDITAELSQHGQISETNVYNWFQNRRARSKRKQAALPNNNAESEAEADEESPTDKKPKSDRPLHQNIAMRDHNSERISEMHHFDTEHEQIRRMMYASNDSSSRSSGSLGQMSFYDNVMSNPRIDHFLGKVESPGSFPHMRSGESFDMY
Put plainly: protein-binding microarray (RPBM); PBS, 2% BSA, 51.3 ng/ul salmon testes DNA, 50 uM zinc acetate, 200 nM TF, 25 C, 1 h; high values mean tight binding. Conditions: protein: recombinant; tags: N-terminal polyhistidine and DsRed monomer fusion (pET32a); label: CyDye5-dUTP incorporated in the synthesized complementary strand; 3' TTTTT single-stranded linker to array surface; dsDNA, one strand shown. An outline of the steps: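 Using Ni–NTA, transcription factors fused N-terminally to polyhistidine and DsRed were purified after expression in E. coli BL21-CodonPlus. These were incubated at 200 nM with a blocked, double-stranded custom Agilent array for 1 h at 25 °C in a buffer containing 50 µM zinc acetate, and the array was washed. The binding signal is per-feature fluorescence intensity (arbitrary units) on an Axon 4000B scanner.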
As for “ATTTTAGTTTAATTCAATTAAATTGTGTTAAAATTTCATACGGAGTCACCTAGTGCAG”, the binding signal is 5620 fluorescence intensity (a.u.).

“TTACAAACGAGAGTTTAATTGGTATTTTAGTCTTCTGCACCGGAGTCACCTAGTGCAG”: the binding signal was 9020 fluorescence intensity (a.u.).

Regarding “AAATTAATTAAGCAGCTTCTTCCATTCAGACATAGGTCGACGGAGTCACCTAGTGCAG”, the binding signal is 16200 fluorescence intensity (a.u.).

For “TTGGTGTTAAATTTATAGTTATGTTATACACTGTCTTGAACGGAGTCACCTAGTGCAG”, the binding signal is 4760 fluorescence intensity (a.u.).

Consider “TTAATTACACAGTTTGCATATAAATTACGAGACGAATATTCGGAGTCACCTAGTGCAG”, for which the binding signal is 8430 fluorescence intensity (a.u.).

As for “CATTGTTGATTGAAAATTTACCAGGAGATAACAAAACATTCGGAGTCACCTAGTGCAG”, the binding signal is 29900 fluorescence intensity (a.u.).

Turning to “ACGTCTATCCACCAATTAATTAATAAATATACTCCAATATCGGAGTCACCTAGTGCAG”, the binding signal was 17300 fluorescence intensity (a.u.).

For the sequence “CCAATTTCAATCAAATTTTCAATTTTAACGCGAACTAGACCGGAGTCACCTAGTGCAG”, the binding signal was 19700 fluorescence intensity (a.u.).

For the sequence “AAAACTCAATTAATCACATATTATTACCACATCGTTTTGCCGGAGTCACCTAGTGCAG”, the binding signal was 18000 fluorescence intensity (a.u.).

On to “ATTAATTATTTATTTCTTATATTACAGATTTTCAGTATATCGGAGTCACCTAGTGCAG”, for which the binding signal is 18600 fluorescence intensity (a.u.).

In the case of “AGTTAATTAATTTTGTATGCATTGACTTGCTTATATATATCGGAGTCACCTAGTGCAG”, the binding signal was 29900 fluorescence intensity (a.u.).

Regarding “TCTGATTTATCACATATTTTCACACGTGCGAAGCATGCCGCGGAGTCACCTAGTGCAG”, the binding signal was 22600 fluorescence intensity (a.u.).

Turning to “TTGAAAATTGGCTATTCCTTTATATGCCATTGATCCAAATCGGAGTCACCTAGTGCAG”, the binding signal is 4790 fluorescence intensity (a.u.).

Turning to “TTAATTAGGCTCAAAAGATTTGTCTCGTGGTTTCTAGACGCGGAGTCACCTAGTGCAG”, the binding signal was 4610 fluorescence intensity (a.u.).

As for “AAATTAGACGGATAATTAAAGTTAGGCACAGAAACTCGTACGGAGTCACCTAGTGCAG”, the binding signal is 18100 fluorescence intensity (a.u.).

On to “ATAAATTTAAGTGCATTTTGGTTGACGTACTGACGTGTTTCGGAGTCACCTAGTGCAG”, for which the binding signal was 7190 fluorescence intensity (a.u.).

In the case of “CGCGGGAATGATCGCTAATAAATCAGCATAATTTGCTAGTCGGAGTCACCTAGTGCAG”, the binding signal was 6190 fluorescence intensity (a.u.).

As to “AGAAATTATGTATAACTGTAAGGTCTGGTTAGTGTTACAACGGAGTCACCTAGTGCAG”, the binding signal is 6200 fluorescence intensity (a.u.).

Turning to “ACAACCACAAAATTGACACTACGCGACAGTGATGAAACTGCGGAGTCACCTAGTGCAG”, the binding signal was 6600 fluorescence intensity (a.u.).

“GAGCTCAGATTTATAGCTAATTGTAGGTGATATACCCGTCCGGAGTCACCTAGTGCAG”: the binding signal is 9550 fluorescence intensity (a.u.).

“AACCCCGATTGAAAACAAACAAACAAACATGACATCGGCTCGGAGTCACCTAGTGCAG”: the binding signal is 16100 fluorescence intensity (a.u.).

Turning to “TTTGATAGGATTTCTTATGTATTTATCAAAGTTTGGTGAACGGAGTCACCTAGTGCAG”, the binding signal was 22400 fluorescence intensity (a.u.).

“CTTTTACTACTGATGATGAATTTACAGTGACTTCTTGTCGCGGAGTCACCTAGTGCAG”: the binding signal was 3400 fluorescence intensity (a.u.).

“CCTCCTCATCATGGCTTAATTAATTAATACTCCTAGCTGCCGGAGTCACCTAGTGCAG”: the binding signal is 29000 fluorescence intensity (a.u.).

Regarding “TTTGATTGGTTGCAAGAATGGGATTAAAAGAATATTTTAGCGGAGTCACCTAGTGCAG”, the binding signal was 37200 fluorescence intensity (a.u.).

With “TTTTACTTTTGATTGTAACGCGTTTTGGTTTAATTAGTACCGGAGTCACCTAGTGCAG”, the binding signal was 8160 fluorescence intensity (a.u.).

In the case of “TCAAGATTACACTATGTAAATTATAATTTGTCTCCCCTTTCGGAGTCACCTAGTGCAG”, the binding signal is 17200 fluorescence intensity (a.u.).

Take “TGTGAATGTTGTGATTGAGGTGGTATCAGTATCATATCCGCGGAGTCACCTAGTGCAG”: the binding signal was 27000 fluorescence intensity (a.u.).

Turning to “TTCGGCCGAACGGCAACATCGTCGGCTCACACACGCATCGCGGAGTCACCTAGTGCAG”, the binding signal was 35300 fluorescence intensity (a.u.).

Consider “ATTAATTTATTATATCAATTTGTCTTGAAATTTTATCATACGGAGTCACCTAGTGCAG”, for which the binding signal was 19700 fluorescence intensity (a.u.).

With “TGTTAATGATATGTGTTTAGATTCATTAACATCTGTATGTCGGAGTCACCTAGTGCAG”, the binding signal was 12700 fluorescence intensity (a.u.).

Turning to “ACTAAATTTATCACATCACCAAAAGTTCTGGTGAACATCACGGAGTCACCTAGTGCAG”, the binding signal is 26100 fluorescence intensity (a.u.).

As to “GGTCCAATGATATGGTCAAATTGGTAGTTAGCTTTCAAACCGGAGTCACCTAGTGCAG”, the binding signal was 8860 fluorescence intensity (a.u.).

Consider “AATGGTAAATTATTAAGCGCAAACTTAAGAGAGGTATTTGCGGAGTCACCTAGTGCAG”, for which the binding signal is 3960 fluorescence intensity (a.u.).

Consider “ACAATATATAATTACAATGTAGTTAAACTACAGTTATATCCGGAGTCACCTAGTGCAG”, for which the binding signal is 4350 fluorescence intensity (a.u.).

In the case of “CTTTCAGTGATAGACGACGTACTCATCGACAACGAGACATCGGAGTCACCTAGTGCAG”, the binding signal is 10300 fluorescence intensity (a.u.).

“AACTAGAATTGAATGTGTGATTCTCTGTATAGAATAGATGCGGAGTCACCTAGTGCAG”: the binding signal is 5800 fluorescence intensity (a.u.).

Take “AATGATTTTGGTAGCTTTGGGATATATCATGTCATAAGGACGGAGTCACCTAGTGCAG”: the binding signal is 7360 fluorescence intensity (a.u.).

Take “CAAGATTTGATATGATTATATTATGATAAAATACATGTATCGGAGTCACCTAGTGCAG”: the binding signal is 23400 fluorescence intensity (a.u.).

As to “CCCTGATAAACTATTAACTTGCACTGATTTTATTAGTCGGCGGAGTCACCTAGTGCAG”, the binding signal is 26100 fluorescence intensity (a.u.).

For “ATTGATAAATTGCTAAGCCAATGAAGATAAAACTATGTATCGGAGTCACCTAGTGCAG”, the binding signal is 16400 fluorescence intensity (a.u.).

For the sequence “ATATTGATGTTAATGAATCTAGACATATATATCTATTTAGCGGAGTCACCTAGTGCAG”, the binding signal was 7130 fluorescence intensity (a.u.).
